# Test results from the supplement of paper PMC8728848.
# The other results are listed elsewhere or left out.
# B1: Glycodelin A (Homo sapiens), P09466 (protein)
# chain: MLCLLLTLGVALVCGVPAMDIPQTKQDLELPKLAGTWHSMAMATNNISLMATLKAPLRVHITSLLPTPEDNLEIVLHRWENNSCVEKKVLGEKTENPKKFKINYTVANEATLLDTDYDNFLFLCLQDTTTPIQSMMCQYLARVLVEDDEIMQGFIRAFRPLPRHLWYLLDLKQMEEPCRF
# Experiments:
# Experiment in all cases: glycan array binding signal (z-score within array); higher = stronger binding
# Settings in all cases: glycan notation: IUPAC condensed, linker removed
# Gal(b1-2)Gal = molecular target: Gal(b1-2)Gal
# Summary of the method: (§1)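 Negative Z-scores can be read as non-binding. The Z-score is calculated within each array and then averaged across arrays of one protein sequence at different concentrations or buffers and across linkers. Arrays, 3228 in all, were curated from the Consortium for Functional Glycomics database and kept only where the protein sequence was available.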
# Gal(b1-3)Gal = molecular target: Gal(b1-3)Gal
# Summary of the method: as §1
# Gal(b1-3)Gal(b1-4)GlcNAc = molecular target: Gal(b1-3)Gal(b1-4)GlcNAc
# Summary of the method: as §1
# Gal(b1-3)GalNAc = molecular target: Gal(b1-3)GalNAc
# Summary of the method: as §1
# [1] = molecular target: Gal(b1-3)GalNAc(b1-3)Gal(a1-4)Gal(b1-4)Glc
# Summary of the method: as §1
# [2] = molecular target: Gal(b1-3)GalNAc(b1-4)Gal(b1-4)Glc
# Summary of the method: as §1
# [3] = molecular target: Gal(b1-3)GalNAc(b1-4)[Neu5Ac(a2-3)]Gal(b1-4)Glc
# Summary of the method: as §1
# Gal(b1-3)GlcNAc = molecular target: Gal(b1-3)GlcNAc
# Summary of the method: as §1
# [4] = molecular target: Gal(b1-3)GlcNAc(b1-2)Man(a1-3)[Gal(b1-3)GlcNAc(b1-2)Man(a1-6)]Man(b1-4)GlcNAc(b1-4)GlcNAc
# Summary of the method: as §1
# [5] = molecular target: Gal(b1-3)GlcNAc(b1-3)Gal(b1-3)GlcNAc
# Summary of the method: as §1
# [6] = molecular target: Gal(b1-3)GlcNAc(b1-3)Gal(b1-4)Glc
# Summary of the method: as §1
# [7] = molecular target: Gal(b1-3)GlcNAc(b1-3)Gal(b1-4)GlcNAc
# Summary of the method: as §1
# [8] = molecular target: Gal(b1-3)[Fuc(a1-4)]GlcNAc
# Summary of the method: as §1
# [9] = molecular target: Gal(b1-3)[Fuc(a1-4)]GlcNAc(b1-3)Gal(b1-3)[Fuc(a1-4)]GlcNAc
# Summary of the method: as §1
# [10] = molecular target: Gal(b1-3)[Fuc(a1-4)]GlcNAc(b1-3)Gal(b1-4)GlcNAc
# Summary of the method: as §1
# [11] = molecular target: Gal(b1-3)[Fuc(a1-4)]GlcNAc(b1-3)Gal(b1-4)[Fuc(a1-3)]GlcNAc
# Summary of the method: as §1
# [12] = molecular target: Gal(b1-3)[GlcNAc(b1-6)]GalNAc
# Summary of the method: as §1
# [13] = molecular target: Gal(b1-3)[Neu5Ac(a2-6)]GalNAc
# Summary of the method: as §1
# [14] = molecular target: Gal(b1-3)[Neu5Ac(a2-6)]GlcNAc(b1-6)Gal(b1-4)Glc
# Summary of the method: as §1
# [15] = molecular target: Gal(b1-3)[Neu5Ac(b2-6)]GalNAc
# Summary of the method: as §1
# [16] = molecular target: Gal(b1-4)GalNAc(a1-3)[Fuc(a1-2)]Gal(b1-4)GlcNAc
# Summary of the method: as §1
# [17] = molecular target: Gal(b1-4)GalNAc(b1-3)[Fuc(a1-2)]Gal(b1-4)GlcNAc
# Summary of the method: as §1
# Gal(b1-4)Glc = molecular target: Gal(b1-4)Glc
# Summary of the method: as §1
# Gal(b1-4)Glc6S = molecular target: Gal(b1-4)Glc6S
# Summary of the method: as §1
# Gal(b1-4)GlcNAc = molecular target: Gal(b1-4)GlcNAc
# Summary of the method: as §1
# [18] = molecular target: Gal(b1-4)GlcNAc(a1-6)Gal(b1-4)GlcNAc
# Summary of the method: as §1
# [19] = molecular target: Gal(b1-4)GlcNAc(b1-2)Man(a1-3)[Gal(b1-4)GlcNAc(b1-2)Man(a1-6)]Man(b1-4)GlcNAc(b1-4)GlcNAc
# Summary of the method: as §1
# [20] = molecular target: Gal(b1-4)GlcNAc(b1-3)Gal(b1-3)GlcNAc
# Summary of the method: as §1
# [21] = molecular target: Gal(b1-4)GlcNAc(b1-3)Gal(b1-4)Glc
# Summary of the method: as §1
# [22] = molecular target: Gal(b1-4)GlcNAc(b1-3)Gal(b1-4)GlcNAc
# Summary of the method: as §1
# [23] = molecular target: Gal(b1-4)GlcNAc(b1-3)Gal(b1-4)GlcNAc(b1-3)Gal(b1-4)GlcNAc
# Summary of the method: as §1
# [24] = molecular target: Gal(b1-4)GlcNAc(b1-3)Gal(b1-4)[Fuc(a1-3)]GlcNAc(b1-3)Gal(b1-4)[Fuc(a1-3)]GlcNAc
# Summary of the method: as §1
# [25] = molecular target: Gal(b1-4)GlcNAc(b1-3)GalNAc
# Summary of the method: as §1
# [26] = molecular target: Gal(b1-4)GlcNAc(b1-3)[Gal(b1-4)GlcNAc(b1-6)]Gal(b1-4)GlcNAc
# Summary of the method: as §1
# [27] = molecular target: Gal(b1-4)GlcNAc(b1-3)[GlcNAc(b1-6)]Gal(b1-4)GlcNAc
# Summary of the method: as §1
# [28] = molecular target: Gal(b1-4)GlcNAc(b1-6)Gal(b1-4)GlcNAc
# Summary of the method: as §1
# [29] = molecular target: Gal(b1-4)GlcNAc(b1-6)Gal(b1-4)GlcNAc(b1-6)GalNAc
# Summary of the method: as §1
# [30] = molecular target: Gal(b1-4)GlcNAc(b1-6)GalNAc
# Summary of the method: as §1
# [31] = molecular target: Gal(b1-4)GlcNAc(b1-6)[Gal(b1-3)]GalNAc
# Summary of the method: as §1
# Gal3S(b1-3)GalNAc = molecular target: Gal3S(b1-3)GalNAc
# Summary of the method: as §1
# Gal3S(b1-3)GlcNAc = molecular target: Gal3S(b1-3)GlcNAc
# Summary of the method: as §1
# [32] = molecular target: Gal3S(b1-3)[Fuc(a1-4)]GlcNAc
# Summary of the method: as §1
# Gal3S(b1-4)Glc = molecular target: Gal3S(b1-4)Glc
# Summary of the method: as §1
# Gal3S(b1-4)Glc6S = molecular target: Gal3S(b1-4)Glc6S
# Summary of the method: as §1
# Gal3S(b1-4)GlcNAc = molecular target: Gal3S(b1-4)GlcNAc
# Summary of the method: as §1
# Gal3S(b1-4)GlcNAc6S = molecular target: Gal3S(b1-4)GlcNAc6S
# Summary of the method: as §1
# [33] = molecular target: Gal3S(b1-4)[Fuc(a1-3)]Glc
# Summary of the method: as §1
# Gal3S4S(b1-4)GlcNAc = molecular target: Gal3S4S(b1-4)GlcNAc
# Summary of the method: as §1
# Gal3S6S(b1-4)GlcNAc = molecular target: Gal3S6S(b1-4)GlcNAc
# Summary of the method: as §1
# Gal3S6S(b1-4)GlcNAc6S = molecular target: Gal3S6S(b1-4)GlcNAc6S
# Summary of the method: as §1
# Gal4S(b1-4)GlcNAc = molecular target: Gal4S(b1-4)GlcNAc
# Summary of the method: as §1
# Gal4S6S(b1-4)GlcNAc = molecular target: Gal4S6S(b1-4)GlcNAc
# Summary of the method: as §1
# Gal6S(b1-4)Glc = molecular target: Gal6S(b1-4)Glc
# Summary of the method: as §1
# Gal6S(b1-4)Glc6S = molecular target: Gal6S(b1-4)Glc6S
# Summary of the method: as §1
# Gal6S(b1-4)GlcNAc = molecular target: Gal6S(b1-4)GlcNAc
# Summary of the method: as §1
# Gal6S(b1-4)GlcNAc6S = molecular target: Gal6S(b1-4)GlcNAc6S
# Summary of the method: as §1
# GalNAc(a1-3)Gal = molecular target: GalNAc(a1-3)Gal
# Summary of the method: as §1
# GalNAc(a1-3)GalNAc = molecular target: GalNAc(a1-3)GalNAc
# Summary of the method: as §1
# GalNAc(b1-3)Gal = molecular target: GalNAc(b1-3)Gal
# Summary of the method: as §1
# [34] = molecular target: GalNAc(b1-3)Gal(a1-4)Gal(b1-4)GlcNAc
# Summary of the method: as §1
binder,measurement,setting,value
B1,glycan array binding signal (z-score),Gal(b1-2)Gal,-0.178
same,glycan array binding signal (z-score),Gal(b1-3)Gal,-0.358
same,glycan array binding signal (z-score),Gal(b1-3)Gal(b1-4)GlcNAc,-0.397
same,glycan array binding signal (z-score),Gal(b1-3)GalNAc,0.456
same,glycan array binding signal (z-score),[1],-0.473
same,glycan array binding signal (z-score),[2],2.88
same,glycan array binding signal (z-score),[3],2.27
same,glycan array binding signal (z-score),Gal(b1-3)GlcNAc,-0.392
same,glycan array binding signal (z-score),[4],-0.359
same,glycan array binding signal (z-score),[5],-0.463
same,glycan array binding signal (z-score),[6],-0.345
same,glycan array binding signal (z-score),[7],-0.53
same,glycan array binding signal (z-score),[8],0.183
same,glycan array binding signal (z-score),[9],1.38
same,glycan array binding signal (z-score),[10],1.52
same,glycan array binding signal (z-score),[11],-0.44
same,glycan array binding signal (z-score),[12],0.309
same,glycan array binding signal (z-score),[13],-0.314
same,glycan array binding signal (z-score),[14],-0.362
same,glycan array binding signal (z-score),[15],-0.465
same,glycan array binding signal (z-score),[16],-0.317
same,glycan array binding signal (z-score),[17],-0.364
same,glycan array binding signal (z-score),Gal(b1-4)Glc,-0.395
same,glycan array binding signal (z-score),Gal(b1-4)Glc6S,-0.418
same,glycan array binding signal (z-score),Gal(b1-4)GlcNAc,-0.424
same,glycan array binding signal (z-score),[18],-0.269
same,glycan array binding signal (z-score),[19],-0.437
same,glycan array binding signal (z-score),[20],-0.433
same,glycan array binding signal (z-score),[21],-0.32
same,glycan array binding signal (z-score),[22],-0.418
same,glycan array binding signal (z-score),[23],-0.465
same,glycan array binding signal (z-score),[24],-0.463
same,glycan array binding signal (z-score),[25],-0.373
same,glycan array binding signal (z-score),[26],-0.32
same,glycan array binding signal (z-score),[27],-0.437
same,glycan array binding signal (z-score),[28],-0.419
same,glycan array binding signal (z-score),[29],-0.473
same,glycan array binding signal (z-score),[30],-0.374
same,glycan array binding signal (z-score),[31],-0.36
same,glycan array binding signal (z-score),Gal3S(b1-3)GalNAc,0.023
same,glycan array binding signal (z-score),Gal3S(b1-3)GlcNAc,0.12
same,glycan array binding signal (z-score),[32],3.69
same,glycan array binding signal (z-score),Gal3S(b1-4)Glc,-0.226
same,glycan array binding signal (z-score),Gal3S(b1-4)Glc6S,1.24
same,glycan array binding signal (z-score),Gal3S(b1-4)GlcNAc,-0.331
same,glycan array binding signal (z-score),Gal3S(b1-4)GlcNAc6S,-0.334
same,glycan array binding signal (z-score),[33],-0.37
same,glycan array binding signal (z-score),Gal3S4S(b1-4)GlcNAc,-0.288
same,glycan array binding signal (z-score),Gal3S6S(b1-4)GlcNAc,-0.168
same,glycan array binding signal (z-score),Gal3S6S(b1-4)GlcNAc6S,-0.456
same,glycan array binding signal (z-score),Gal4S(b1-4)GlcNAc,-0.451
same,glycan array binding signal (z-score),Gal4S6S(b1-4)GlcNAc,-0.305
same,glycan array binding signal (z-score),Gal6S(b1-4)Glc,0.625
same,glycan array binding signal (z-score),Gal6S(b1-4)Glc6S,-0.395
same,glycan array binding signal (z-score),Gal6S(b1-4)GlcNAc,-0.342
same,glycan array binding signal (z-score),Gal6S(b1-4)GlcNAc6S,-0.098
same,glycan array binding signal (z-score),GalNAc(a1-3)Gal,-0.099
same,glycan array binding signal (z-score),GalNAc(a1-3)GalNAc,-0.339
same,glycan array binding signal (z-score),GalNAc(b1-3)Gal,-0.229
same,glycan array binding signal (z-score),[34],-0.336
